{
  "source": "paper PMC4336329",
  "about": "(PLoS ONE, 2015)",
  "note": "Screen size: about 310,000 compounds; about 2,200 (0.71%) showed an effect of 50% or more. The effect is printed as a negative number. Some of the results follow.",
  "data": [
    {"target": "human ether-à-go-go-related gene (hERG) potassium channel (human, UniProt Q12809)", "sequence (Q12809 whole entry, looked up)": "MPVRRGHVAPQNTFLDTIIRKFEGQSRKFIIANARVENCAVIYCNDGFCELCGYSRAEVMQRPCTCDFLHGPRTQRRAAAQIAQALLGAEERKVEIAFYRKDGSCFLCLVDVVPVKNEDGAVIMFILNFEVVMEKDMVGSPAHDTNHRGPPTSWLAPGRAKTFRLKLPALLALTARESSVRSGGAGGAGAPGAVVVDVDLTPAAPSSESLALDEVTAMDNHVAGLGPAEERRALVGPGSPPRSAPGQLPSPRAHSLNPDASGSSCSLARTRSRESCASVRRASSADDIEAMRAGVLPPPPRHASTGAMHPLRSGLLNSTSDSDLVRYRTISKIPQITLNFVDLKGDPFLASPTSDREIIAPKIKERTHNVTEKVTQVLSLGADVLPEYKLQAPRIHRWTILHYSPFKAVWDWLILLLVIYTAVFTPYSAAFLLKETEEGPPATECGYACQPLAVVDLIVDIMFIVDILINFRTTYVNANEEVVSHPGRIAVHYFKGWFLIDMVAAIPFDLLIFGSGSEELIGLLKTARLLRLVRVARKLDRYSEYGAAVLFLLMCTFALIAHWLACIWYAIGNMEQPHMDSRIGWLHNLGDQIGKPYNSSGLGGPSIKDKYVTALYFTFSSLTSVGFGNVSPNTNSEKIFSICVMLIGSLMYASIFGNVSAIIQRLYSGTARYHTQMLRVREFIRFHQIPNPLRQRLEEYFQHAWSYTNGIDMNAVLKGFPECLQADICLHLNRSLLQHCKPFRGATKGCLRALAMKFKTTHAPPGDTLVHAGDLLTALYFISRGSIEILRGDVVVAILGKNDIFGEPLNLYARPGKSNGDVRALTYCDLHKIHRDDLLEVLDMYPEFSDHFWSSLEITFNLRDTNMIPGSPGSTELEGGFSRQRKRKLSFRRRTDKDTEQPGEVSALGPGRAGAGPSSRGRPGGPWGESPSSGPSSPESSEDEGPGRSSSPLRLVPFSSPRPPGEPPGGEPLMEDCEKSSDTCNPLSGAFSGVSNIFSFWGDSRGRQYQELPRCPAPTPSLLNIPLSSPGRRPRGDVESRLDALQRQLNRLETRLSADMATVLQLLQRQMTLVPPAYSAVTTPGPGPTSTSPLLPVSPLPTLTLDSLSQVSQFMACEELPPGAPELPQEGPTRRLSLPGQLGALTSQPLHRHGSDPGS", "experiment": "primary screen, population patch clamp on CHO cells stably expressing hERG", "units": {"hERG current change (%, negative = inhibition) at 1uM": "%"}, "values": [
      {"smiles": "CCCc1nnc(SCC(=O)Nc2cccc(Cl)c2Cl)o1", "hERG current change (%, negative = inhibition) at 1uM": 11.4},
      {"smiles": "CCN(CC(=O)NCc1ccc(F)cc1)C(=O)C1CCN(C(=O)Nc2ccccc2)CC1", "hERG current change (%, negative = inhibition) at 1uM": -0.883},
      {"smiles": "CNC(=O)Nc1cc(C(C)(C)C)no1", "hERG current change (%, negative = inhibition) at 1uM": 6.89},
      {"smiles": "COc1cc(OC)cc(C(=O)NNC(=O)C(=O)Nc2cc(OC)c(Cl)cc2OC)c1", "hERG current change (%, negative = inhibition) at 1uM": 21.9},
      {"smiles": "Cn1c(=NC(=O)CSCC(=O)N2CCCC2)sc2ccccc21", "hERG current change (%, negative = inhibition) at 1uM": 6.01},
      {"smiles": "Cc1ccc(C(=O)/C=C2\\NCC(C)NC2=O)cc1", "note": "(stereo not drawn)", "hERG current change (%, negative = inhibition) at 1uM": 12.9},
      {"smiles": "CN(Cc1nc2ccccc2n1C)C(=O)c1ccco1", "hERG current change (%, negative = inhibition) at 1uM": 16.2},
      {"smiles": "CCOC(=O)C1CCCN(C(=O)CSCc2ccccc2)C1", "note": "(stereo not drawn)", "hERG current change (%, negative = inhibition) at 1uM": 12.5},
      {"smiles": "CC1c2cc3c(cc2CCN1CC(=O)Nc1ccc(S(=O)(=O)N2CCCC2)cc1)OCCCO3", "note": "(stereo not drawn)", "hERG current change (%, negative = inhibition) at 1uM": 5.47},
      {"smiles": "CNCCCOc1ccc2c(c1)CCC2.O=C(O)C(=O)O", "hERG current change (%, negative = inhibition) at 1uM": 8.46},
      {"smiles": "Cc1ccc(C2(C)NC(=O)N(CC(=O)Nc3ccc(-c4nc5ccc(C)cc5s4)cc3)C2=O)cc1", "note": "(stereo not drawn)", "hERG current change (%, negative = inhibition) at 1uM": 2.26},
      {"smiles": "O=C(Nc1ccc2c(c1)OCCO2)c1coc2ccccc2c1=O", "hERG current change (%, negative = inhibition) at 1uM": 11.2},
      {"smiles": "Cc1ccc2nc3c(cc2c1)c(NC(=O)c1cccnc1)nn3C", "hERG current change (%, negative = inhibition) at 1uM": 6.86},
      {"smiles": "CC(=O)N1CCc2cc(C(=O)CN3CCN(c4ccccn4)CC3)ccc21", "hERG current change (%, negative = inhibition) at 1uM": -3.17},
      {"smiles": "CCNCC(=O)Nc1ccc(N2CCOCC2)cc1", "hERG current change (%, negative = inhibition) at 1uM": 13.2},
      {"smiles": "Cc1nnc(NC(=O)c2sc3ccccc3c2Cl)s1", "hERG current change (%, negative = inhibition) at 1uM": 9.06},
      {"smiles": "CC(C)(C)OC(=O)N1CCC[C@H]1C(=O)O", "hERG current change (%, negative = inhibition) at 1uM": 5},
      {"smiles": "CCOC(=O)c1[nH]c2cc(OC)c(OC)cc2c1NC(=O)c1ccc2c(c1)OCO2", "hERG current change (%, negative = inhibition) at 1uM": 6.16},
      {"smiles": "COC(=O)c1c(C)nn(-c2ccccc2)c1N", "hERG current change (%, negative = inhibition) at 1uM": 5.04},
      {"smiles": "COC(=O)C1(O)CC(C(C)C)=NN1C(=O)c1ccccc1", "note": "(stereo not drawn)", "hERG current change (%, negative = inhibition) at 1uM": 17.6},
      {"smiles": "COc1ccc(-c2nc3ccccc3c(=O)n2CCOc2cc(C)ccc2C)cc1", "hERG current change (%, negative = inhibition) at 1uM": 10.1},
      {"smiles": "Cc1ccc(CNC(=O)c2ccc3c(=O)c(O)c(-c4ccc(C)cc4)[nH]c3c2)cc1", "hERG current change (%, negative = inhibition) at 1uM": 19.6},
      {"smiles": "Cc1ccc(S(=O)(=O)N2CCC(C(=O)Nc3nnc(-c4ccc(F)cc4)s3)CC2)cc1", "hERG current change (%, negative = inhibition) at 1uM": -2.31},
      {"smiles": "Cc1ccc(Sc2ncccc2C(=O)O)cc1C", "hERG current change (%, negative = inhibition) at 1uM": 15.6},
      {"smiles": "CCOc1ccc(S(=O)(=O)N2CCN(C(=O)CN3C(=O)NC4(CCCC4)C3=O)CC2)cc1", "hERG current change (%, negative = inhibition) at 1uM": 3.17},
      {"smiles": "CCN1CCCC1CNC(=O)c1cc2c(C)nc3ccccc3c2o1", "note": "(stereo not drawn)", "hERG current change (%, negative = inhibition) at 1uM": -0.901},
      {"smiles": "O=C(O)C(Cc1cnc[nH]1)NS(=O)(=O)c1ccc(Br)cc1", "note": "(stereo not drawn)", "hERG current change (%, negative = inhibition) at 1uM": 10.8},
      {"smiles": "O=C(CSc1ccccc1)Nc1cccc(NC(=O)c2ccco2)c1", "hERG current change (%, negative = inhibition) at 1uM": 9.68},
      {"smiles": "COc1ccc(Cl)cc1C(=O)Nc1cc(=O)n(C)c(=O)n1C", "hERG current change (%, negative = inhibition) at 1uM": 11.6},
      {"smiles": "O=C(O)C1C2C=CC(C2)C1C(=O)NCCCc1ccccc1", "note": "(stereo not drawn)", "hERG current change (%, negative = inhibition) at 1uM": 8.67},
      {"smiles": "Cc1ccc(S(=O)(=O)c2nnn3c2nc(N2CCOCC2)c2ccccc23)cc1", "hERG current change (%, negative = inhibition) at 1uM": 4.78},
      {"smiles": "COc1ccc(NC(=O)c2cc(-c3cc(Cl)ccc3O)n[nH]2)c(OC)c1", "hERG current change (%, negative = inhibition) at 1uM": 13},
      {"smiles": "Cc1ccccc1-c1ccc(C(=O)Nc2cccc(F)c2)o1", "hERG current change (%, negative = inhibition) at 1uM": -9.03},
      {"smiles": "Cc1cc(CSc2ccccc2)ccc1NC(=O)c1ccc(C)c([N+](=O)[O-])c1", "hERG current change (%, negative = inhibition) at 1uM": 7.16},
      {"smiles": "c1cnc2ccc(C(c3nnnn3C3CCCC3)N3CCN4CCCC4C3)cc2c1", "note": "(stereo not drawn)", "hERG current change (%, negative = inhibition) at 1uM": -19.5},
      {"smiles": "COc1ccc(-c2cn(CCCOCc3ccccc3)nn2)cc1", "hERG current change (%, negative = inhibition) at 1uM": -11.6},
      {"smiles": "CCOC(=O)C1=C(COC(=O)CNC(=O)c2ccc(C)cc2)NC(=O)NC1C", "note": "(stereo not drawn)", "hERG current change (%, negative = inhibition) at 1uM": 14.1},
      {"smiles": "COc1cccc(NC(=O)CN(C)C(=O)c2c(-c3c(F)cccc3Cl)noc2C)c1", "hERG current change (%, negative = inhibition) at 1uM": 1.55},
      {"smiles": "CCCCc1cc(=O)oc2cc(OCC(=O)NCc3ccccn3)c(Cl)cc12", "hERG current change (%, negative = inhibition) at 1uM": 15.6},
      {"smiles": "CC(NC(=O)c1ccc(N2CCCC2)c([N+](=O)[O-])c1)c1ccc(S(N)(=O)=O)cc1", "note": "(stereo not drawn)", "hERG current change (%, negative = inhibition) at 1uM": 12.3},
      {"smiles": "O=C(Nc1cnn(Cc2ccc(F)cc2)c1)c1cc2nc(-c3ccco3)cc(C(F)(F)F)n2n1", "hERG current change (%, negative = inhibition) at 1uM": 13.9},
      {"smiles": "CC(=O)Nc1ccccc1OCC(=O)NCC(F)(F)F", "hERG current change (%, negative = inhibition) at 1uM": 19.3},
      {"smiles": "Cc1cccc(NC(=O)Cn2nnc(C(=O)Nc3ccc(F)c(Cl)c3)c2N)c1", "hERG current change (%, negative = inhibition) at 1uM": 13.6},
      {"smiles": "CCC(CC)C(=O)Nc1cc(C(=O)OC)ccc1C(=O)OC", "hERG current change (%, negative = inhibition) at 1uM": -1.71},
      {"smiles": "CC(C)Oc1ccc(C(=O)Nc2nnc(SCC(=O)N3CCOCC3)s2)cc1", "hERG current change (%, negative = inhibition) at 1uM": 12.5},
      {"smiles": "CCCCN(CCCC)Cc1ccc(C(=O)NNC(=O)Nc2ccc(F)cc2)o1", "hERG current change (%, negative = inhibition) at 1uM": -8},
      {"smiles": "Cc1cc(C(=O)COc2ccc(F)cc2Br)c(C)n1C", "hERG current change (%, negative = inhibition) at 1uM": 8.9},
      {"smiles": "CCCCOC(=O)Nc1ccc(N(C)C)cc1", "hERG current change (%, negative = inhibition) at 1uM": 7.27},
      {"smiles": "O=C(NCC1CCCO1)/C(=C\\c1ccccc1)NC(=O)c1ccccc1", "note": "(stereo not drawn)", "hERG current change (%, negative = inhibition) at 1uM": 9.36},
      {"smiles": "Cc1ccc(S(=O)(=O)NNC(=O)Nc2ccc(C)c(C)c2)c(C)c1", "hERG current change (%, negative = inhibition) at 1uM": -1.3},
      {"smiles": "CS(=O)(=O)N(CC(=O)NCCSCc1ccccc1)c1ccccc1F", "hERG current change (%, negative = inhibition) at 1uM": 12.2},
      {"smiles": "Nc1nc(NC(=O)c2ccc(F)cc2)ns1", "hERG current change (%, negative = inhibition) at 1uM": 3.43},
      {"smiles": "COc1ccc(N2CCN(CCCNC(=O)Cn3c(=O)c4cccn4c4ccccc43)CC2)cc1", "hERG current change (%, negative = inhibition) at 1uM": -25.1},
      {"smiles": "O=C(COc1ccc2ccccc2c1)NC1CC1", "hERG current change (%, negative = inhibition) at 1uM": 5.85},
      {"smiles": "O=C(O)c1ccccc1-c1ccccc1C(=O)Nc1ccccc1-c1ccccc1", "hERG current change (%, negative = inhibition) at 1uM": 15.8},
      {"smiles": "CCOC(=O)c1cccc2c1-c1ccccc1/C2=N/O", "hERG current change (%, negative = inhibition) at 1uM": 14},
      {"smiles": "COc1ccc(NC(=O)CSc2nc3c(c(=O)n2-c2ccc(F)cc2)SCC3)c(OC)c1", "hERG current change (%, negative = inhibition) at 1uM": -0.162}
    ]}
  ]
}
